Among the data in PMC8026080, “Functional regulation of the structure-specific endonuclease FEN1 by the human cytomegalovirus protein IE1 suggests a role for the re-initiation of stalled viral replication forks” (PLoS Pathogens, 2021) are binding values, retold here.

Sequences of proteins named here, by UniProt entry; tags and fusion partners are left off. A change or cut given only in a name is not applied to a line headed by its entry. Residues count along the entry.
UniProt P39748: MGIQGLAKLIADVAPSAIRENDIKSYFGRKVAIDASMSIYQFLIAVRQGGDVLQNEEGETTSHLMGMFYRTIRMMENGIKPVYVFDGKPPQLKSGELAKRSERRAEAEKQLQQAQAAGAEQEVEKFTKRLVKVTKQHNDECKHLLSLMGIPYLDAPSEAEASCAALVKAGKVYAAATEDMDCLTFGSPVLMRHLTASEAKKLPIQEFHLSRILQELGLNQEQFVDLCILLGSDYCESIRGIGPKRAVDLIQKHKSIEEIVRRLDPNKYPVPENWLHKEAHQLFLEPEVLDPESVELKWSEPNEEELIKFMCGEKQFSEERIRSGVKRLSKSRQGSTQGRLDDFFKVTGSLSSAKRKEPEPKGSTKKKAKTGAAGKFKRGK
FLAG-FEN1 176–380: residues 176-380 of P39748

No constants are given. Whether binding was seen depends on the method and setting. For some of these results: In cells and extracts the contact can be indirect. Some entries that bind do so weakly or less than the wild type.

Assay [1] deals with HCMV IE1 1–359 (IE1 core with deletion of a C-terminal helix) fused to the GAL4 DNA-binding domain (human cytomegalovirus) (UniProt P13202). Description: two-hybrid; pairwise test in yeast Y153: GAL4-AD fusion and GAL4-DBD fusion co-transformed, selection on medium lacking Trp and Leu, XGal filter assay for beta-galactosidase at 30°C.
Assay [2] addresses HCMV IE1 full length fused to the GAL4 DNA-binding domain (human cytomegalovirus) (UniProt P13202). Described as above.
Assay [3] deals with HCMV IE1 globular core region (amino acids 14 to 382) fused to the GAL4 DNA-binding domain (human cytomegalovirus) (UniProt P13202). The assay is described as above.
Assay [4] shares this target. In words: two-hybrid; library screen in yeast Y153: GAL4-DBD-IE1 14-382 (pGBT9) as bait, B lymphocyte cDNA library in pACT as prey; selection on HWL- agar with 10 mM 3-aminotriazole, then XGal filter lift assay.
The target of assay [5] is FLAG-IE1 (full length) (human cytomegalovirus) (UniProt P13202). Description: co-IP; HEK293T cotransfected with Myc- and FLAG-tagged constructs; lysis in CoIP buffer (50 mM Tris-HCl pH 8.0, 150 mM NaCl, 5 mM EDTA, 0.5% NP-40); IP with anti-FLAG M2 on protein-A-sepharose, 2 h at 4°C; Western blot with anti-Myc.
Assay [6] addresses FLAG-IE1 1–382 (human cytomegalovirus) (UniProt P13202). The assay is described as above.
A further assay deals with FLAG-FEN1 176–380 (UniProt P39748). Described as above.
In a further assay the target is FLAG-FEN1 (full length) (UniProt P39748). The assay is described as above.

“Flap endonuclease 1 fragment aa 176–380 fused to the GAL4 activation domain (from UniProt P39748 176-380) (domain or fragment)”: the binding result is “no binding” in assay [1], “binds” in assay [2], “binds” in assay [3] and “binds” in assay [4].

For “Myc-FEN1 176–380 (from UniProt P39748 176-380) (domain or fragment)”, the binding result in assay [5] and in assay [6] was “binds” throughout.

Regarding “Myc-IE1 1–382 Helix 8 mut (from UniProt P13202 1-382) (domain or fragment)”, the binding result with FLAG-FEN1 176–380 was “binds”.

As to “Myc-IE1 1–382 Y206A mut (from UniProt P13202 1-382) (domain or fragment)”, the binding result in the assay with FLAG-FEN1 176–380 is on record as “binds”.

With “Myc-IE1 1–382 wildtype (from UniProt P13202 1-382) (domain or fragment)”, the binding entry in the assay with FLAG-FEN1 (full length) and with FLAG-FEN1 176–380 was “binds” each time.
